Test results reported in PMC12040169 (PLOS Biology, 2025).
This is one part of the list.

tested on: T1, C. trachomatis L2/434/Bu expressing GFP (CTL2-GFP); set-up: species or system HeLa; C. trachomatis total inclusion area by high-content imaging, normalised to DMSO; conditions: total inclusion area; 28.5 h, 10 µM; inhibitor
T1 construct: L2/434/Bu GFP intracellular growth in HeLa cells
Method in brief: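 High-content imaging followed the bulk GFP/resorufin measurement: fixed, Hoechst-stained cells were scored for GFP inclusions and host nuclei per well. Total inclusion area and count served as growth proxies, nuclei number as the viability proxy. MIC calculation matched the bulk assay.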

Row | Structure (SMILES) | % of control remaining
1 | O=C(Nc1nc(-c2cc3ccccc3o2)cs1)c1ccc(F)cc1 [CBK287756] | 110.522
2 | Cc1ccc(C(=O)NC(=O)CSc2nc(N)n[nH]2)cc1 [CBK267523] | 108.105
3 | COc1cccc(-c2noc(C3CCN(CCc4ccccc4)CC3)n2)c1 [CBK051455] | 77.7623
4 | O=C(O)c1cccc(S(=O)(=O)N2CCC(C(=O)O)CC2)c1 [CBK267199] | 108.493
5 | COc1cc(C(=S)N2CCN(C)CC2)ccc1OCC(N)=O [CBK269037] | 104.563
6 | O=C(O)c1cccc(NS(=O)(=O)c2ccc(CNC(=O)c3ccc(Cl)cc3)s2)c1 [CBK155085] | 88.1497
7 | CCc1cccc2c(CN3CCc4c(nc(C)[nH]c4=O)C3)c[nH]c12 [CBK283993] | 82.3705
8 | CCC1(c2ccccc2)OCC(C2CCCCN2)O1 (stereo not drawn) [CBK023284C] | 91.502
9 | O=C(O)CN1C(=O)C(O)=C(C(=O)c2ccc(Cl)cc2)C1c1ccccc1[N+](=O)[O-] (stereo not drawn) [CBK263794] | 123.988
10 | CC(C)(c1ccc(Oc2cccc(N)c2)cc1)c1ccc(Oc2cccc(N)c2)cc1 [CBK260958] | 83.1298
11 | CC(C)CN(Cc1cccs1)C(=O)c1cc2n(n1)CCCN(C)C2 [CBK306793] | 76.9761
12 | CCN(CC(=O)NCc1ccc(F)cc1)C(=O)c1cc(C#N)c[nH]1 [CBK305221] | 52.6929
13 | Cc1cc(C2(C(F)(F)F)C=C3c4ccccc4CC(C)(C)N3C2=O)cc(C)c1O (stereo not drawn) [CBK017463] | 78.1746
14 | CCCS(=O)(=O)Nc1nccnc1-c1cccs1 [CBK050763] | 107.149
15 | COCCn1cc(C(=O)N2CCCC2c2cc(C)on2)c2ccccc21 (stereo not drawn) [CBK305289] | 37.716
16 | COC[C@H]1CCCN1C(=O)CC[C@H]1CNC(=O)[C@@H]2[C@@H](CCN2C(C)C)N1C [CBK289038] | 81.8545
17 | FC(F)(F)c1cccc(Sc2cccs2)n1 [CBK115242] | 97.0878
18 | O=c1[nH]c2ccccc2n1CCCN1CCC(Oc2cncc(OCC3COc4ccccc4O3)n2)C1 (stereo not drawn) [CBK084380] | 94.325
19 | Cc1nn(-c2ccccn2)c(C)c1[C@@H]1C=C[C@@H](NC(=O)CCC(=O)O)C1 [CBK289170] | 86.3311
20 | Cc1cccc2c1OCC[C@@H]2Oc1cncc(N2CCNCC2)n1 [CBK172310G] | 70.7051
21 | COc1cccc(C(=O)N2CCC(NC(=O)Cc3ccc(F)cc3)CC2)c1 [CBK155027] | 87.2425
22 | O=CN1CCc2c([nH]c3cc(F)ccc23)C12CCN(CCc1ccc3c(c1)OCO3)CC2 [CBK039614] | 69.1079
23 | Cc1c(Cc2ccccc2)c(N2CCN(C3c4ccccc4-c4ccccc43)CC2)n2c(nc3ccccc32)c1C#N [CBK263124] | 91.8308
24 | O=C(NCc1c(OC(=O)c2cccc([N+](=O)[O-])c2)ccc2ccccc12)c1ccccc1 [CBK260919] | 88.4163
25 | CS(=O)(=O)N[C@H]1CO[C@H]2[C@@H]1OC[C@@H]2Nc1nccc(-c2ccco2)n1 [CBK289525] | 110.27
26 | Cc1ccc2n1CCN(C(=O)c1cc(-c3ccccn3)n[nH]1)C2C(C)C (stereo not drawn) [CBK282447] | 136.687

Row | Structure (SMILES) | % of control remaining
27 | CC(C)c1ccc(S(=O)(=O)Nc2cccc(SC(F)(F)F)c2)cc1 [CBK044581] | 45.1636
28 | COc1ccc(C(O)Cc2nc3ccccc3n2Cc2ccc(Cl)cc2)cc1 (stereo not drawn) [CBK262143] | 99.9409
29 | COc1ccc(CCNC(=O)N2CCCC2C(=O)O)cc1 (stereo not drawn) [CBK161386] | 54.1816
30 | CC(=O)NCCc1nc2cc(NC(=O)c3ccc([N+](=O)[O-])cc3)ccc2n1C [CBK268368] | 99.0406
31 | CS(=O)(=O)N1CCC(C(=O)NC(c2ccc(F)cc2)c2ccccn2)CC1 (stereo not drawn) [CBK059696] | 91.2526
32 | O=C(Oc1ccc2c(c1)C1C=CCC1C(C(=O)O)N2)c1ccc(Cl)cc1Cl (stereo not drawn) [CBK265285] | 98.9285
33 | CC(C)(C)N1C(=O)c2ccc(C(=O)NNC(=O)C(C#N)C(=O)c3ccc4c(c3)C(=O)N(C(C)(C)C)C4=O)cc2C1=O (stereo not drawn) [CBK268652] | 111.48
34 | O=C(Nc1cccc2ccccc12)c1ccc(CSCc2ccccc2)cc1 [CBK263759] | 95.3213
35 | CC(=O)Nc1ccc(C(=O)N2CCCC(c3cccc(Cc4ccc(Cl)cc4)n3)C2)cc1 (stereo not drawn) [CBK286134] | 94.185
36 | Cc1ccc(NC(=O)c2cnccn2)c(C)n1 [CBK200291] | 107.165
37 | Cc1ccn(-c2ccc(N3CCOC4(CCCC4)C3)nn2)n1 [CBK305262] | 16.1212
38 | Cn1c2c(c(=O)n(C)c1=O)[C@H]1[C@H](O)[C@H](O)C[C@H]1C1(CCC1)N2 [CBK303250] | 108.163
39 | N/C(=N/OCC(=O)Nc1cccc2ccccc12)c1nonc1N [CBK265234] | 86.6785
40 | Fc1ccccc1CN(CCCn1ccnc1)Cc1ccncc1 [CBK282981] | 115.105
41 | Oc1ccc2ccccc2c1/C=N/Nc1nnn[nH]1 [CBK262028] | 63.0595
42 | COc1ccc(C2=C3NN=C(N)N3NN2)cc1 [CBK093662] | 76.0455
43 | CSCCN1CCCC2(CCN(C(=O)c3ccoc3)C2)C1 (stereo not drawn) [CBK132835] | 79.05
44 | OC(c1cccs1)C1CCN(Cc2ccc(-n3cncn3)cc2)CC1 (stereo not drawn) [CBK306523] | 52.3585
45 | CCN1CCCC1CNC(=O)c1ccc(C)nc1NCCCn1ccnc1 (stereo not drawn) [CBK076382] | 111.606
46 | Cc1noc([C@@H]2C[C@H](NS(=O)(=O)c3ccc(C#N)cc3)CN2C)n1 [CBK288874] | 110.912
47 | Cc1cccnc1C(c1ccc(F)cc1)N(C)C(=O)C1CCN(C(=O)OCc2ccccc2)CC1 (stereo not drawn) [CBK060095] | 98.355
48 | CCCCSc1nnc2c(n1)OC(/C=C/c1ccc([N+](=O)[O-])o1)Nc1ccccc1-2 (stereo not drawn) [CBK262565] | 67.3076
49 | c1ccc(-c2cnc(C3CCCCC3)o2)cc1 [CBK008192] | 48.1545
50 | COc1ccc(CCNC(=O)c2n[nH]c(=O)c3ccccc23)cc1OC [CBK270160] | 73.9522
51 | COc1ccc2c(c1)CCC1(C)C2=C(C(=O)O)CC1O (stereo not drawn) [CBK022814] | 65.5
52 | CC(C)[C@H](CO)Nc1nc(-c2cccc(OC(F)(F)F)c2)cnc1N [CBK063957] | 110.648

Row | Structure (SMILES) | % of control remaining
53 | Brc1c(OCc2ccccc2)ccc2[nH]ccc12 [CBK160845] | 34.6617
54 | O=C(NCCn1nc(-c2ccco2)ccc1=O)C1CCCCC1 [CBK283743] | 74.9129
55 | CN1C[C@@H](NS(C)(=O)=O)C[C@H]1c1nc(-c2ccc3ccccc3c2)no1 [CBK288859] | 110.044
56 | C=CCn1c(NCc2ccccc2NS(=O)(=O)c2ccc(C)cc2)nc2ccccc21 [CBK266393] | 141.456
57 | CC(NC(=O)c1ccc(=O)n(C)n1)c1ccc2c(c1)CCCC2 (stereo not drawn) [CBK281416] | 87.0693
58 | CCc1noc(C)c1C(=O)NCCN(C)C [CBK268118] | 110.51
59 | Cc1ccc(C(=O)NCC(c2ccccc2Cl)N2CCOCC2)c(=O)[nH]1 (stereo not drawn) [CBK305928] | 82.1414
60 | CCCC(=O)NC[C@H]1CC[C@H](c2ccnc3cc(C)nn32)CC1 [CBK283474] | 101.336
61 | CN1C(=O)c2ccc(NS(C)(=O)=O)cc2C1=O [CBK038158] | 89.9708
62 | CCn1c(SCC(=O)Nc2ccccc2OC)nnc1-c1ccc(N)cc1 [CBK265859] | 141.209
63 | CC(C)(C)OC(=O)N1CCC(c2nc(-c3cccnc3)no2)CC1 [CBK304332] | 77.3269
64 | Cc1cc(S(=O)(=O)Nc2ccc(C(C)(C)C)cc2)sc1C(=O)O [CBK297946] | 123.5
65 | COc1cc(NC(=O)CC2NC3CCCCC3NC2=O)cc(OC)c1OC (stereo not drawn) [CBK270012] | 114.335
66 | COc1ccc(OC)c(-n2c(S)nnc2Cn2c(-c3ccccn3)nc3ccccc32)c1 [CBK269320] | 95.9449
67 | COCCCn1c(=O)[nH]c2ncc(-c3ccc(C(=O)N4CCOCC4)cc3)nc21 [CBK064366] | 88.2436
68 | Cc1cc(C)nc(SCC(=O)Nc2cc(C(=O)O)cc([N+](=O)[O-])c2)n1 [CBK268937] | 102.896
69 | Cc1ncc(CN(C)C(=O)Nc2cccc(C(=O)N3CCOCC3)c2)s1 [CBK305984] | 90.9093
70 | O=C(CSc1nccn1C1CC1)Nc1ccc(CN2CCOCC2)cc1 [CBK306071] | 77.0418
71 | CCC(C)(C)C1CCC(NC(=O)CSCCC(=O)O)CC1 (stereo not drawn) [CBK296674] | 115.835
72 | Cc1cc(C)n(CC(=O)N2CCCC2c2cc3cccnc3[nH]2)n1 (stereo not drawn) [CBK285074] | 65.2397
73 | COc1cc(NC(=O)NCc2cncn2CC(C)C)c2ncccc2c1 [CBK307182] | 87.9717
74 | COCc1cc(C)nc(NCCO)c1C#N [CBK262556] | 89.9944
75 | NC(=O)CN1CC2(CCN(Cc3cccc(C(F)(F)F)c3)CC2)c2ccccc21 [CBK126776] | 91.0744
76 | Cc1ccc(NC(=O)CSc2nnc(COc3ccc(Cl)cc3Cl)o2)cc1Cl [CBK264113] | 102.994
77 | CCN(CC)C(=O)CN1CCC(Oc2nccnc2OC2CCCCC2)CC1 [CBK082866T] | 99.1449
78 | CC1CCC(C(N)=O)CN1c1cc(Br)ccn1 (stereo not drawn) [CBK304856] | 47.2589
